Measurements published in patent US8992932B2 (Seattle Genetics, Inc., dated 2015).

Biological target: T1, C4.4a on A549 cells transfected with the sequence for the complete C4.4a receptor (Homo sapiens)
T1 chain: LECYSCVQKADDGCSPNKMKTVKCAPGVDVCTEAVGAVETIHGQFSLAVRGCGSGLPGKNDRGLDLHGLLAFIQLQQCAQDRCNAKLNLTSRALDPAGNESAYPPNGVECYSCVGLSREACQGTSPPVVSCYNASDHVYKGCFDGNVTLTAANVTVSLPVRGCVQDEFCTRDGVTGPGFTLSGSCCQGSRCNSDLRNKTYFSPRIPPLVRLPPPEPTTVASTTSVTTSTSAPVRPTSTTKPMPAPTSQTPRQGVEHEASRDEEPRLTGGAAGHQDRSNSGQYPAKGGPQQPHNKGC
Test: cell-based or functional assay

B1: ADC of Example 15 (antibody)
heavy: QVELLESGGGLVQPGGSLRLSCAASGFTFSNAWMSWVRQAPGKGLEWVSYISSSGSTIYYADSVKGRFTISRDNSKNTLYLQMNSLRAEDTAVYYCAREGLWAFDYWGQGTLVTVSS[in this place human IgG1 constant region]
light: DIVLTQPPSASGTPGQRVTISCTGSSSNIGAGYVVHWYQQLPGTAPKLLIYDNNKRPSGVPDRFSGSKSGTSASLAISGLRSEDEADYYCAAWDDRLNGPVFGGGTKLTVLGQPKAAPSVTLFPPSSEELQANKATLVCLISDFYPGAVTVAWKGDSSPVKAGVETTTPSKQSNNKYAASSYLSLTPEQWKSHRSYSCQVTHEGSTVEKTVAPTECS
modifications: toxophore-linker on Cys (via S); toxophore-linker on Cys (via S)
IC50 [nM] A549: C4.4a (cell viability): 0.03 nM
